Data: US20230303648A1 (OSE IMMUNOTHERAPEUTICS, published 2023)

T1: IL-7 receptor (IL-7R: CD127/CD132) on cells (human, UniProt P16871 21-459; P31785 23-369)
T1 sequence (looked up) 1: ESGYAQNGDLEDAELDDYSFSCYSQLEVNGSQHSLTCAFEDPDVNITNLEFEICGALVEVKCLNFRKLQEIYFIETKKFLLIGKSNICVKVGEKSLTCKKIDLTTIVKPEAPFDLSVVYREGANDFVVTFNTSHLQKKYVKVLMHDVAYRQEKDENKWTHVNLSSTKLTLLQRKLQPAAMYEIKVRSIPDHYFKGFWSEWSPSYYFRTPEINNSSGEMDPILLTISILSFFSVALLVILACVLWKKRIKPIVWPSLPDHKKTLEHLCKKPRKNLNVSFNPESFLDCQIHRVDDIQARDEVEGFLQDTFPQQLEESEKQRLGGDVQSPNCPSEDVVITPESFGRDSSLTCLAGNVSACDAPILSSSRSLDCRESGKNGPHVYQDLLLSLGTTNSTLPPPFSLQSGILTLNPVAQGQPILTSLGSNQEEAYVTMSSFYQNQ
T1 sequence (looked up) 2: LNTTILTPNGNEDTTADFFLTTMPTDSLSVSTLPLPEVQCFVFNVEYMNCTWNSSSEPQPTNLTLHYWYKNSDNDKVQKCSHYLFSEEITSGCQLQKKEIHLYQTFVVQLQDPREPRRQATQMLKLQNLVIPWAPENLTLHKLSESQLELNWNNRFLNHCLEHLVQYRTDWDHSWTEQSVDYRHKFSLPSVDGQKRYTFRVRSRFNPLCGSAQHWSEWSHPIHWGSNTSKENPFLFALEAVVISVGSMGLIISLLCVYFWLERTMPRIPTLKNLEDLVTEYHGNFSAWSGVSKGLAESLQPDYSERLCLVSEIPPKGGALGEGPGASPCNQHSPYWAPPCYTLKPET

T2: CD127 recombinant protein (Histidine tagged, Sino ref 10975-H08H) (UniProt P16871 21-239)
T2 construct: bought; used in the CD127 sandwich ELISA; also called CD127 receptor; IL-7Ralpha; not shown: histidine tag
T2 sequence (looked up): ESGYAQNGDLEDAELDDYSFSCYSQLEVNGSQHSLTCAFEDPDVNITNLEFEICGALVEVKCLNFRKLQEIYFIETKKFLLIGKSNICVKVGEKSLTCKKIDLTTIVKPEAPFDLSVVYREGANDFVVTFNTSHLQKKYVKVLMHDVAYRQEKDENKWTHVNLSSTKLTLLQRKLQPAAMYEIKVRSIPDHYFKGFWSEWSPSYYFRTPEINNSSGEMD

B1: anti PD-1 IL-7 D74E bifunctional molecule, IgG4m isotype, (GGGGS)3 linker (other)
heavy: QIQLVQSGSELKKPGASVKVSCKASGYTFTHYAMNWVRQAPGQGLEWMGWINTNTGEPTYAQGFTGRFVFSLDTSVSTAYLQISSLKAEDTAVYYCAREREPGMDNWGQGTLVTVSSASTKGPSVFPLAPCSRSTSESTAALGCLVKDYFPEPVTVSWNSGALTSGVHTFPAVLQSSGLYSLSSVVTVPSSSLGTKTYTCNVDHKPSNTKVDKRV[… human IgG4 Fc with S228P L445P (EU numbers) …]GGGGSGGGGSGGGGSDCDIEGKDGKQYESVLMVSIDQLLDSMKEIGSNCLNNEFNFFKRHICDANKEGMFLFRAARKLRQFLKMNSTGEFDLHLLKVSEGTTILLNCTGQVKGRKPAALGEAQPTKSLEENKSLKEQKKLNDLCFLKRLLQEIKTCWNKILMGTKEH
light: DVVMTQSPLSLPVTLGQPASISCRSSQSLVHANTNTYLEWYQQRPGQSPRLLIYKVSNRFSGVPDRFSGSGSGTDFTLKISRVEAEDVGVYYCFQGTHVPNTFGQGTKLEIKRTVAAPSVFIFPPSDEQLKSGTASVVCLLNNFYPREAKVQWKVDNALQSGNSQESVTEQDSKDSTYSLSSTLTLSKADYEKHKVYACEVTHQGLSSPVTKSFNRGEC
notes: as m11 with IL-7 D74E; also called IgG4 G4S3 IL7 D74E; IgG4 G4S3 IL7D74E
B2: anti PD-1 IL-7 K81R bifunctional molecule, IgG4m isotype, (GGGGS)3 linker (other)
heavy: QIQLVQSGSELKKPGASVKVSCKASGYTFTHYAMNWVRQAPGQGLEWMGWINTNTGEPTYAQGFTGRFVFSLDTSVSTAYLQISSLKAEDTAVYYCAREREPGMDNWGQGTLVTVSSASTKGPSVFPLAPCSRSTSESTAALGCLVKDYFPEPVTVSWNSGALTSGVHTFPAVLQSSGLYSLSSVVTVPSSSLGTKTYTCNVDHKPSNTKVDKRV[… human IgG4 Fc with S228P L445P (EU numbers) …]GGGGSGGGGSGGGGSDCDIEGKDGKQYESVLMVSIDQLLDSMKEIGSNCLNNEFNFFKRHICDANKEGMFLFRAARKLRQFLKMNSTGDFDLHLLRVSEGTTILLNCTGQVKGRKPAALGEAQPTKSLEENKSLKEQKKLNDLCFLKRLLQEIKTCWNKILMGTKEH
light: DVVMTQSPLSLPVTLGQPASISCRSSQSLVHANTNTYLEWYQQRPGQSPRLLIYKVSNRFSGVPDRFSGSGSGTDFTLKISRVEAEDVGVYYCFQGTHVPNTFGQGTKLEIKRTVAAPSVFIFPPSDEQLKSGTASVVCLLNNFYPREAKVQWKVDNALQSGNSQESVTEQDSKDSTYSLSSTLTLSKADYEKHKVYACEVTHQGLSSPVTKSFNRGEC
notes: as m11 with IL-7 K81R; also called IgG4 G4S3 IL7 K81R
B3: anti PD-1 IL-7 M17L bifunctional molecule, IgG4m isotype, (GGGGS)3 linker (other)
heavy: QIQLVQSGSELKKPGASVKVSCKASGYTFTHYAMNWVRQAPGQGLEWMGWINTNTGEPTYAQGFTGRFVFSLDTSVSTAYLQISSLKAEDTAVYYCAREREPGMDNWGQGTLVTVSSASTKGPSVFPLAPCSRSTSESTAALGCLVKDYFPEPVTVSWNSGALTSGVHTFPAVLQSSGLYSLSSVVTVPSSSLGTKTYTCNVDHKPSNTKVDKRV[… human IgG4 Fc with S228P L445P (EU numbers) …]GGGGSGGGGSGGGGSDCDIEGKDGKQYESVLLVSIDQLLDSMKEIGSNCLNNEFNFFKRHICDANKEGMFLFRAARKLRQFLKMNSTGDFDLHLLKVSEGTTILLNCTGQVKGRKPAALGEAQPTKSLEENKSLKEQKKLNDLCFLKRLLQEIKTCWNKILMGTKEH
light: DVVMTQSPLSLPVTLGQPASISCRSSQSLVHANTNTYLEWYQQRPGQSPRLLIYKVSNRFSGVPDRFSGSGSGTDFTLKISRVEAEDVGVYYCFQGTHVPNTFGQGTKLEIKRTVAAPSVFIFPPSDEQLKSGTASVVCLLNNFYPREAKVQWKVDNALQSGNSQESVTEQDSKDSTYSLSSTLTLSKADYEKHKVYACEVTHQGLSSPVTKSFNRGEC
notes: as m11 with IL-7 M17L; also called IGG4 G4S3 IL7 M17L
B4: anti PD-1 IL-7 Q11E bifunctional molecule, IgG4m isotype, (GGGGS)3 linker (other)
heavy: QIQLVQSGSELKKPGASVKVSCKASGYTFTHYAMNWVRQAPGQGLEWMGWINTNTGEPTYAQGFTGRFVFSLDTSVSTAYLQISSLKAEDTAVYYCAREREPGMDNWGQGTLVTVSSASTKGPSVFPLAPCSRSTSESTAALGCLVKDYFPEPVTVSWNSGALTSGVHTFPAVLQSSGLYSLSSVVTVPSSSLGTKTYTCNVDHKPSNTKVDKRV[… human IgG4 Fc with S228P L445P (EU numbers) …]GGGGSGGGGSGGGGSDCDIEGKDGKEYESVLMVSIDQLLDSMKEIGSNCLNNEFNFFKRHICDANKEGMFLFRAARKLRQFLKMNSTGDFDLHLLKVSEGTTILLNCTGQVKGRKPAALGEAQPTKSLEENKSLKEQKKLNDLCFLKRLLQEIKTCWNKILMGTKEH
light: DVVMTQSPLSLPVTLGQPASISCRSSQSLVHANTNTYLEWYQQRPGQSPRLLIYKVSNRFSGVPDRFSGSGSGTDFTLKISRVEAEDVGVYYCFQGTHVPNTFGQGTKLEIKRTVAAPSVFIFPPSDEQLKSGTASVVCLLNNFYPREAKVQWKVDNALQSGNSQESVTEQDSKDSTYSLSSTLTLSKADYEKHKVYACEVTHQGLSSPVTKSFNRGEC
notes: as m11 with IL-7 Q11E; also called IgG4 G4S3 IL7 Q11E; IgG4 IL7 Q11E
B5: anti PD-1 IL-7 Q22E bifunctional molecule, IgG4m isotype, (GGGGS)3 linker (other)
heavy: QIQLVQSGSELKKPGASVKVSCKASGYTFTHYAMNWVRQAPGQGLEWMGWINTNTGEPTYAQGFTGRFVFSLDTSVSTAYLQISSLKAEDTAVYYCAREREPGMDNWGQGTLVTVSSASTKGPSVFPLAPCSRSTSESTAALGCLVKDYFPEPVTVSWNSGALTSGVHTFPAVLQSSGLYSLSSVVTVPSSSLGTKTYTCNVDHKPSNTKVDKRV[… human IgG4 Fc with S228P L445P (EU numbers) …]GGGGSGGGGSGGGGSDCDIEGKDGKQYESVLMVSIDELLDSMKEIGSNCLNNEFNFFKRHICDANKEGMFLFRAARKLRQFLKMNSTGDFDLHLLKVSEGTTILLNCTGQVKGRKPAALGEAQPTKSLEENKSLKEQKKLNDLCFLKRLLQEIKTCWNKILMGTKEH
light: DVVMTQSPLSLPVTLGQPASISCRSSQSLVHANTNTYLEWYQQRPGQSPRLLIYKVSNRFSGVPDRFSGSGSGTDFTLKISRVEAEDVGVYYCFQGTHVPNTFGQGTKLEIKRTVAAPSVFIFPPSDEQLKSGTASVVCLLNNFYPREAKVQWKVDNALQSGNSQESVTEQDSKDSTYSLSSTLTLSKADYEKHKVYACEVTHQGLSSPVTKSFNRGEC
notes: as m11 with IL-7 Q22E; also called IGG4 G4S3 IL7 Q22E
B6: anti PD-1 IL-7 Y12F bifunctional molecule, IgG4m isotype, (GGGGS)3 linker (other)
heavy: QIQLVQSGSELKKPGASVKVSCKASGYTFTHYAMNWVRQAPGQGLEWMGWINTNTGEPTYAQGFTGRFVFSLDTSVSTAYLQISSLKAEDTAVYYCAREREPGMDNWGQGTLVTVSSASTKGPSVFPLAPCSRSTSESTAALGCLVKDYFPEPVTVSWNSGALTSGVHTFPAVLQSSGLYSLSSVVTVPSSSLGTKTYTCNVDHKPSNTKVDKRV[… human IgG4 Fc with S228P L445P (EU numbers) …]GGGGSGGGGSGGGGSDCDIEGKDGKQFESVLMVSIDQLLDSMKEIGSNCLNNEFNFFKRHICDANKEGMFLFRAARKLRQFLKMNSTGDFDLHLLKVSEGTTILLNCTGQVKGRKPAALGEAQPTKSLEENKSLKEQKKLNDLCFLKRLLQEIKTCWNKILMGTKEH
light: DVVMTQSPLSLPVTLGQPASISCRSSQSLVHANTNTYLEWYQQRPGQSPRLLIYKVSNRFSGVPDRFSGSGSGTDFTLKISRVEAEDVGVYYCFQGTHVPNTFGQGTKLEIKRTVAAPSVFIFPPSDEQLKSGTASVVCLLNNFYPREAKVQWKVDNALQSGNSQESVTEQDSKDSTYSLSSTLTLSKADYEKHKVYACEVTHQGLSSPVTKSFNRGEC
notes: as m11 with IL-7 Y12F; also called IgG4 G4S3 IL7 Y12F
B7: anti-PD-1 bifunctional molecule comprising IL-7 D74E, GGGGS linker, IgG1N298A isotype (other)
heavy: QIQLVQSGSELKKPGASVKVSCKASGYTFTHYAMNWVRQAPGQGLEWMGWINTNTGEPTYAQGFTGRFVFSLDTSVSTAYLQISSLKAEDTAVYYCAREREPGMDNWGQGTLVTVSS[… human IgG1 constant region with changes …]GGGGSDCDIEGKDGKQYESVLMVSIDQLLDSMKEIGSNCLNNEFNFFKRHICDANKEGMFLFRAARKLRQFLKMNSTGEFDLHLLKVSEGTTILLNCTGQVKGRKPAALGEAQPTKSLEENKSLKEQKKLNDLCFLKRLLQEIKTCWNKILMGTKEH
light: DVVMTQSPLSLPVTLGQPASISCRSSQSLVHANTNTYLEWYQQRPGQSPRLLIYKVSNRFSGVPDRFSGSGSGTDFTLKISRVEAEDVGVYYCFQGTHVPNTFGQGTKLEIKRTVAAPSVFIFPPSDEQLKSGTASVVCLLNNFYPREAKVQWKVDNALQSGNSQESVTEQDSKDSTYSLSSTLTLSKADYEKHKVYACEVTHQGLSSPVTKSFNRGEC
notes: also called IgG1m G4S D74E

Assays:
[1] = target: T1, IL-7 receptor (IL-7R: CD127/CD132) on …; assay: cell-based or functional assay
[2] = target: T2, CD127 recombinant protein (Histidine …); assay: sandwich ELISA: PD-1 immobilised, fusion preincubated with His-tagged CD127, anti-His detection
[3] = target: T2, CD127 recombinant protein (Histidine …); assay: double binding ELISA: PD-1 immobilised, revelation with CD127 receptor (given as ED50)
[4] = target: T3, recombinant human PD-1 (rPD1; Sino Biologicals, reference 10377-H08H) (human, UniProt Q15116 fragment); assay: ELISA: human PD-1 immobilised (given as ED50)
Sequence of UniProt Q15116 (Q15116 25-167 limits assumed): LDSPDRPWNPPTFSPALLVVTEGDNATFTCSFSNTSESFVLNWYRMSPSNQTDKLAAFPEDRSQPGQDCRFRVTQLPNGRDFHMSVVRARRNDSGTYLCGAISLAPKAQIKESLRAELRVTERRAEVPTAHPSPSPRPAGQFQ
T3 construct: bought; also called hPD1; PD-1 receptor

| Binder | pSTAT5 EC50 in CD3 T cells of human PBMCs [1] [ng/mL] | EC50 [2] [µg/mL] | EC50 [3] [µg/mL] | EC50 [4] [µg/mL] |
| --- | --- | --- | --- | --- |
| B1 | 389 | 0.104 | – | – |
| B2 | 79 | 0.0202 | – | – |
| B3 | 128 | 0.021 | – | – |
| B4 | 77 | 0.0185 | – | – |
| B5 | 84 | 0.0174 | – | – |
| B6 | 66 | 0.0223 | – | – |
| B7 | – | – | 0.0049 | 0.0064 |
